# The campaign covered roughly 200,000 compounds. About 4,500 (2.2%) were called active. Inconclusive results, whose numbers are uncertain, are shown with a selection of clear calls. The call rests on the fitted dose curve; in most records, active means well fitted inhibition curve with a large enough effect; inconclusive means small, poorly fitted or top-dose-only effect, or effect the other way; inactive means flat fitted curve, though single readings scatter. Where the call is inconclusive, the potency comes from a doubtful curve fit.
# Molecular target: Cruzipain (Trypanosoma cruzi) (UniProt P25779)
# Sequence of UniProt P25779 (P25779 whole entry, looked up): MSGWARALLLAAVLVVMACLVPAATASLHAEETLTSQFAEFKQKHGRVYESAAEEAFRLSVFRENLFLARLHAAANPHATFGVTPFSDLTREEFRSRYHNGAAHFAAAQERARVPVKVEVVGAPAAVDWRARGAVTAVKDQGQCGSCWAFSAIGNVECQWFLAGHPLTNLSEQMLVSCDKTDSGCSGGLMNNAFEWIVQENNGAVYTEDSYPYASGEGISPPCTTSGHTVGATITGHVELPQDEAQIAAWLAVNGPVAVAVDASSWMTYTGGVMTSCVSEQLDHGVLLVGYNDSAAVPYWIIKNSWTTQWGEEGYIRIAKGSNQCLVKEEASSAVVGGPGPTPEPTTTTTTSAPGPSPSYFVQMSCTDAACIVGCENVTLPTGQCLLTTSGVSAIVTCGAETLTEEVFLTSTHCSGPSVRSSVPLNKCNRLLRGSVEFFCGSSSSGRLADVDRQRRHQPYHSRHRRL
# Assay: qHTS Assay for Promiscuous and Specific Inhibitors of Cruzain (without detergent); further: nearly all actives have a fitted effect of over 40% in size;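 on max response, negative = inhibition: plate controls were enzyme without inhibitor for no effect and buffer without enzyme for full effect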
# Settings: purified cruzain, Z-FR-AMC fluorescence, no detergent
# Outline: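 Detergent-free condition (0.00005% Triton X-100) in acetate buffer pH 5.5 with DTT. 1.5 nM enzyme and compound were pre-mixed 15 min, then 2 uM Z-FR-AMC substrate added; reaction progress from fluorescence change between first and third reads (60 s).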
# Potency means the concentration at half of the fitted maximal effect; tags describe the fitted curve by direction and shape.
Structure (SMILES),Potency,"max response, negative = inhibition"
COc1cccc(N=Nc2c(=O)[nH]n3c(=O)c4c([nH]c23)CCC4)c1,"inconclusive: 25.1 µM [activator, single point]",
CCNc1ncc2nc(C)c(=O)n(C[C@H]3CCCO3)c2n1,"inconclusive: 39.8 µM [inhibitor, single point]",
O=C(C1CCCO1)N1N=C(c2ccc(Br)cc2)CC1c1ccco1 (configuration not stated),"inconclusive: 39.8 µM [activator, single point]",
Cc1cccc(OCC(=O)Nc2cccc(-c3nnc(-c4ccccc4)o3)c2)c1C,active: 25.1 µM,
COCCNC(=O)C(c1ccc(Cl)cc1)N(C(=O)CCC(=O)Nc1ccccn1)C1CCCC1 (configuration not stated),"inconclusive: 25.1 µM [activator, partial curve]",
Cc1ccc(C)c2[nH]c(=O)c(C(c3nnnn3Cc3ccco3)N3CCc4ccccc4C3)cc12 (configuration not stated),"inconclusive: 39.8 µM [activator, single point]",
CCOc1ccc(-c2nnc(SCC(=O)Nc3cccc(OC)c3)nc2-c2ccc(OCC)cc2)cc1,,inactive: -10.3%
O=C(CN(CC1CCCO1)C(=O)CNS(=O)(=O)c1ccc(Cl)cc1)NCCc1ccccc1 (configuration not stated),"inconclusive: 39.8 µM [activator, single point]",
Cc1ccc(OCC(=O)Nc2ccc(Cl)c(-c3nc4ncccc4o3)c2)c(C)c1,"inconclusive: 15.8 µM [inhibitor, partial curve, poor fit]",
Cc1ccc(C)c(C(=O)c2c(N)c(-c3nc(-c4ccc5c(c4)OCO5)cs3)c3ccccn23)c1,active: 5.01 µM,
O=C(c1ccncc1)N1CCC2(CC1)CN(c1ccccc1)C2,,inactive: -3.87%
Cc1cc(C)cc(Nc2nc(-c3ccc(S(=O)(=O)N4CCCC4)cc3)cs2)c1,active: 15.8 µM,
COc1ccc(N(Cc2cccs2)C(=O)c2ccc(OCC(C)C)cc2)cc1,"inconclusive: 39.8 µM [inhibitor, single point]",
Cc1ccc(NCc2nnc(SCC(=O)N3c4ccccc4Sc4ccccc43)o2)c(C)c1,"inconclusive: 39.8 µM [inhibitor, single point]",
CCc1ccc(CNC(=O)C2Cc3cc(S(=O)(=O)N4CCCCCC4)ccc3N2C(C)=O)cc1 (configuration not stated),,inactive: -6.37%
COC(=O)C1CCN(S(=O)(=O)c2ccc(NC(C)=O)cc2)CC1,,inactive: -2.87%
Fc1ccc(N/N=C2/CC(c3ccccc3)Oc3ccccc32)c(F)c1 (configuration not stated),"inconclusive: 25.1 µM [inhibitor, single point]",
COc1cc(NC(=O)Nc2cccc(-c3noc(C)n3)c2)cc(OC)c1OC,,inactive: 0.621%
Cc1nn(C)c2c1c(-c1ccccc1)cc(=O)n2CC(=O)Nc1ccccc1C(F)(F)F,,inactive: -2.32%
CCOC(=O)c1c(NC(=O)CSc2nnc(-c3c[nH]c4ccccc34)n2CC)sc2c1CCCC2,"inconclusive: 31.6 µM [inhibitor, single point]",
COc1ccc(NCc2cc3cc4c(cc3n(CC(=O)Nc3cc(C)cc(C)c3)c2=O)OCO4)cc1,"inconclusive: 10 µM [inhibitor, partial curve]",

Structure (SMILES),Potency,"max response, negative = inhibition"
O=C(CNS(=O)(=O)/C=C/c1ccccc1)OCC(=O)N1CCC(Cc2ccccc2)CC1,"inconclusive: 39.8 µM [activator, single point]",
COc1ccc(Nc2nc(N/N=C/c3ccc(N(C)C)cc3)nc(C)c2[N+](=O)[O-])cc1,"inconclusive: 39.8 µM [inhibitor, single point]",
Cn1c(N)c(C(=O)COC(=O)C2(c3ccc(F)cc3)CCCC2)c(=O)n(C)c1=O,"inconclusive: 39.8 µM [activator, single point]",
CSc1nc(C)cc(Nc2ccc(O)c(CN3CCCCC3)c2)n1,,inactive: 3.99%
Cc1ccc(Cc2cnc(NC(=O)/C(C#N)=C/c3ccc(-c4cccc([N+](=O)[O-])c4)o3)s2)cc1,active: 3.16 µM,
COc1cc(/C=C(\C#N)c2ccccn2)ccc1OCc1ccc(Cl)cc1,"inconclusive: 1.26 µM [inhibitor, single point]",
COc1ccc(OC)c2[nH]c(=O)c(CCNC(=O)c3cc4ccccc4o3)cc12,"inconclusive: 39.8 µM [activator, single point]",
NC(=O)c1nc(Nc2ccccc2)sc1NC(=O)c1ccccc1Br,"inconclusive: 31.6 µM [inhibitor, single point]",
COc1ccc(OC)c(-c2csc(NC(=O)C3c4ccccc4Oc4ccccc43)n2)c1,active: 20 µM,
CCC(=O)N1CCc2cc(Br)cc(S(=O)(=O)CCC(=O)N3CCN(c4ccccc4F)CC3)c21,,inactive: 1.16%
O=C(Nc1ncc(Cc2ccc(C(F)(F)F)cc2)s1)c1ccc(-c2cccc([N+](=O)[O-])c2)o1,active: 12.6 µM,
Cc1cccc(-c2ccc(-c3cc(=O)oc4cc(C)cc(C)c34)cc2)c1,"inconclusive: 50.1 µM [inhibitor, single point]",
Cc1ccc(C(=O)C2=C(O)C(=O)N(CCCN3CCOCC3)C23C(=O)N(C)c2ccccc23)o1 (configuration not stated),,inactive: -3.86%
CCCCS(=O)(=O)Nc1ccc(C)cn1,,inactive: 4.9%
COc1ccccc1NC(=O)CSc1ncc2c(n1)-c1cc(Cl)ccc1N(Cc1ccccc1)S2(=O)=O,active: 6.31 µM,
Cc1ccc(OCC(=O)Nc2ccc3nc(SCC(=O)N4CCOCC4)sc3c2)cc1,,inactive: -4.95%
COc1ccc(OC)c(CNC(=O)C2CCN(c3nc4ccccc4nc3C(F)(F)F)CC2)c1,,inactive: -1.72%
CCOC(=O)c1c(NC(=O)CN2CCCc3ccccc32)sc(C(C)=O)c1C,"inconclusive: 39.8 µM [inhibitor, single point]",
O=C(C1CC1)N1CCC(c2nc(-c3ccc(S(=O)(=O)N4CCCC4)cc3)no2)CC1,"inconclusive: 25.1 µM [activator, single point]",
Cc1cc2oc(=O)cc(C)c2c2occ(-c3ccc(Cl)cc3)c12,,inactive: -9.9%
COc1cc(OC)cc(-c2cc3nc(C)c(CCC(=O)NCc4ccc(Cl)cc4)c(C)n3n2)c1,"inconclusive: 31.6 µM [activator, partial curve]",
